# From publication PMC4242493
# The other results are listed elsewhere or left out. The list includes weakly bound sequences.
# Biological target: MaxL homodimer (UniProt P61244)
# Assay: universal protein-binding microarray (PBM)
# Details: PBS-based mixture, 10 nM His-tagged protein dimer, 2% milk, 200 ng/uL BSA, 50 ng/uL salmon testes DNA, 0.02% TX-100; detection with Alexa 488 anti-His …; high values mean tight binding; most listed sequences are background and not binding sites; double strand, one strand shown
# Sequence of UniProt P61244 (P61244 whole entry): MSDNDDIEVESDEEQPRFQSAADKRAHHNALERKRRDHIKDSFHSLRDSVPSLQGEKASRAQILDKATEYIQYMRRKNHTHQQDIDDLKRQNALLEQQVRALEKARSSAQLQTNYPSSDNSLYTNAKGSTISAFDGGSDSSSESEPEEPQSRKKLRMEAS
row,Sequence,binding signal (normalized occupancy)
1,GGCTACCA,0.0733
2,ATTCGTCC,0.0739
3,ACATGCCA,0.0967
4,ACTGGTGA,0.0744
5,CGATTAAA,0.0731
6,CTTCCATA,0.0776
7,AAACTCTG,0.0674
8,GCACTCCC,0.078
9,CCTCCTAA,0.0722
10,GACACGCC,0.0849
11,GAGGTAGA,0.0721
12,ATACAATA,0.0777
13,AAAGATCG,0.0722
14,CACGGTAC,0.0749
15,GCGATCGA,0.0695
16,ATAAGAAG,0.0732
17,GTAAAGGA,0.0762
18,AGGCCATA,0.0817
19,CACTAAGA,0.0711
20,GCGGAGCC,0.0664
21,ACCTCCAA,0.0778
22,ACCCCATC,0.0823
23,CTGTCGTA,0.0747
24,ATAGGTTC,0.0754
25,CACCGGAA,0.0719

row,Sequence,binding signal (normalized occupancy)
1,ATGTTCGA,0.0802
2,ACGGGAGC,0.0675
3,AAGTAGTG,0.0752
4,AAGTGGCA,0.0762
5,GGGAGCCC,0.0687
6,AAAAAGCG,0.0696
7,ACACTTTC,0.0805
8,AATCCAGT,0.0747
9,ACATGTCG,0.1
10,ACCAAAAG,0.0706
11,CCGTGGTC,0.074
12,AGGCCTAG,0.0723
13,ATCCCGAG,0.0743
14,ATACCACG,0.0991
15,AGCTTAAG,0.0724
16,CACTGTGA,0.0714
17,GCGAAAGC,0.0658
18,AATTCGCA,0.0713
19,GTATGGAA,0.0836
20,GACATCCC,0.0774
21,AGCGTTGA,0.0769
22,GTCAGAAC,0.069
23,CCAGTACG,0.0718
24,GTGTAGGA,0.0816
25,AGACCGCA,0.0699

row,Sequence,binding signal (normalized occupancy)
1,ACCTCCTG,0.0781
2,GGGTGCTA,0.0789
3,GCGAGTAC,0.0724
4,TAACCGCA,0.0826
5,TACCACAA,0.0831
6,TCAGATCA,0.0735
7,ATAGACCG,0.0706
8,ATTCACCA,0.0797
9,AGCGGCAG,0.0717
10,CGCAGATC,0.0729
11,CTACGGAG,0.0699
12,ATGTTAAC,0.0793
13,ATGAGTTA,0.0824
14,GCGTCTAA,0.0721
15,AAACTTGT,0.0701
16,AAGACGCT,0.0681
17,TGAACGAA,0.0772
18,AGCAGGCT,0.0693
19,ATTCTACA,0.0828
20,ATGGAAGG,0.0804
21,ATGACTTA,0.0813
22,GATCGTAA,0.0757
23,GAATGTTA,0.0831
24,CATCCAGA,0.0807
25,CGTCAGAG,0.0731

row,Sequence,binding signal (normalized occupancy)
1,CGAACCTC,0.073
2,AGGTCAAC,0.0749
3,CATATACC,0.0929
4,AAGTGCAA,0.0751
5,ACGTAGAT,0.0803
6,GTACGTTA,0.0781
7,TACAAGAA,0.0771
8,GGGCACCA,0.0775
9,ATGATCCC,0.0799
10,AGAGCAGG,0.0757
11,CCCGAAAA,0.0743
12,CGGCAGCC,0.0724
13,AGCCCCAA,0.0687
14,CGAGCAAA,0.0678
15,GTATAAGA,0.0826
16,GGCAGCAA,0.0707
17,CCCTATCG,0.0744
18,ATACCCTC,0.0824
19,CGCGCCAC,0.0777
20,AACGCAGG,0.0676
21,ACTAACGA,0.0744
22,CTCCTTTC,0.0775
23,AACGATTA,0.0828
24,AGCTTACA,0.0763
25,ACCAACAT,0.0789

row,Sequence,binding signal (normalized occupancy)
1,CCCCAAAA,0.0734
2,AACGAAAC,0.0737
3,GAATACAA,0.0768
4,CAGCTATA,0.0752
5,AGCTTTGA,0.0691
6,CCCCATTA,0.0782
7,AAGCACTG,0.0694
8,CCCATTCG,0.0781
9,ACCTACGC,0.0714
10,CATGGCGA,0.0859
11,ATTTAACC,0.0764
12,GCTACGTA,0.0764
13,GTGTCGAA,0.0779
14,ACACAAGG,0.084
15,TATATCCA,0.0839
16,ACGATCAG,0.0767
17,GTAGTAAC,0.0703
18,AAGATAGC,0.0693
19,CTACGCCA,0.0777
20,ATATGACG,0.0802
21,GAACAATA,0.0756
22,ACTTCCAC,0.0788
23,GCGAGACC,0.0707
24,GGAGGGCA,0.0793
25,CCGTGTGA,0.0836

row,Sequence,binding signal (normalized occupancy)
1,GAGCTTCA,0.0742
2,GGCCTATA,0.0727
3,GAGCAACA,0.0697
4,GAAGTAGA,0.0735
5,CTAGTCGC,0.0707
6,CAACTTGC,0.0748
7,CGGGGCAC,0.0781
8,CGCAGCTA,0.0652
9,AGTTCTCA,0.0673
10,CAATGCAA,0.0789
11,CTTTTGGA,0.0744
12,GATGCATA,0.0837
13,AGTACACT,0.0755
14,CGAGAGAC,0.0744
15,GTTGAGCA,0.0734
16,CATGTCTA,0.0854
17,AGGATACG,0.0802
18,ACTGCACT,0.0733
19,CAGCGAAG,0.0648
20,CGCCCACC,0.0761
21,CAACCTCG,0.0756
22,CCACGAAG,0.0767
23,GACTCGCA,0.0748
24,CGTACCAC,0.0807
25,CTCTTTAC,0.0768

row,Sequence,binding signal (normalized occupancy)
1,CGCCCCCG,0.0707
2,AGTAGCAC,0.0735
3,AATGGGAA,0.0775
4,ACCTCCGA,0.0734
5,TAGCAACA,0.0783
6,CTCGGAAC,0.0709
7,CAAATCCA,0.0788
8,TAACACAA,0.0902
9,ACGAATCC,0.0802
10,TTGCCAAA,0.0718
11,ACTGTTAT,0.0771
12,CAGCCTAC,0.0736
13,CTAATGCC,0.0701
14,CCGAACCA,0.072
15,AAGTGGGA,0.0771
16,CGGACAGC,0.0666
17,ACTCTCAC,0.0818
18,ATGAACAC,0.0828
19,CCCCCTGA,0.0765
20,CTCGCACA,0.0834
21,CTTCGATA,0.0735
22,ACTCACAG,0.0738
23,TCTAACAA,0.0753
24,CTCCGTCC,0.0682
25,AATCATGA,0.0851

row,Sequence,binding signal (normalized occupancy)
1,GGGCAGTA,0.0774
2,ATGCGTTA,0.0896
3,AGCGCCGC,0.0654
4,AGGCTGGA,0.0721
5,CTACTATA,0.079
6,GAATCCTA,0.0741
7,ATAGCCTA,0.0746
8,CATAACAG,0.0793
9,AACGTGCT,0.115
10,CCGAAGAG,0.071
11,ACTGCGTA,0.0644
12,ACAGGCGT,0.079
13,TGAGACAA,0.0748
14,GCAGAAAC,0.0734
15,ATACGGTC,0.0765
16,CCATGTAC,0.086
17,CTGAACGA,0.0737
18,ACTGAACG,0.0736
19,CACAGGGC,0.0742
20,TATGCTCA,0.0848
21,CCCCAGGA,0.0748
22,CGGGGTCC,0.0731
23,ACTTTCCC,0.0751
24,CGACCTCC,0.0746
25,AAAGTCCG,0.0687

row,Sequence,binding signal (normalized occupancy)
1,TCAGGCAA,0.0718
2,ATTCTTTG,0.0761
3,ACATTCGA,0.0746
4,CCTGCACC,0.0718
5,AACTAAAA,0.0722
6,AGCTATAA,0.0785
7,ATAAACAC,0.0841
8,CCCGACGA,0.0723
9,AACCGGCT,0.0674
10,AAGAACAA,0.0745
11,ATAAATAA,0.0785
12,AGCAGCAA,0.0694
13,AGGAGTAT,0.0782
14,CATTGAGG,0.0789
15,GTACACCA,0.0824
16,AACATGTT,0.0895
17,CAGGTACC,0.0695
18,GAGCTCCA,0.0721
19,AAAAGCCA,0.0705
20,CTTTACGA,0.0705
21,CGCCGCGA,0.0721
22,GAAGTACC,0.0766
23,CCCCTCAA,0.0738
24,CCAGACAC,0.0765
25,GCACACGA,0.0896

row,Sequence,binding signal (normalized occupancy)
1,CAGTGGAG,0.074
2,CCCTTTAA,0.0755
3,CAAGTGTG,0.086
4,CCGGCGTA,0.0672
5,AGCGTCCG,0.0696
6,CGTTACTC,0.0776
7,GTCTGACA,0.077
8,GTGGTACA,0.0857
9,ACAGTTAT,0.0749
10,GGGCGGGA,0.0826
11,ACCTTGCC,0.0758
12,CTATATAG,0.0853
13,GTGTAACA,0.0821
14,TGACTTAA,0.0738
15,CCGCGCTC,0.07
16,CAAAACGG,0.0749
17,CCATATCA,0.0816
18,ACATCCTC,0.0831
19,ACCTTAGA,0.0714
20,AATAGCCA,0.0717
21,GGCGAGCA,0.0723
22,CTAGGGTC,0.0714
23,CACCCGGC,0.0772
24,CACCGTTA,0.0779
25,ACATCATA,0.0849

row,Sequence,binding signal (normalized occupancy)
1,CCGTAAAG,0.0741
2,GCCGTGCC,0.0731
3,CATGCACA,0.0961
4,AATGTTTG,0.0761
5,TCATCTAA,0.0752
6,AGCATTCG,0.0711
7,ACAAATAT,0.0828
8,GGGGCTAA,0.0741
9,ACATACAT,0.0931
10,CTGGTCTC,0.0687
11,ATCTCTAC,0.0742
12,ACAATAGA,0.0762
13,CGCGAATA,0.0733
14,AACGTGCA,0.109
15,CGCCTCTC,0.0756
16,CTAGAGTA,0.071
17,ACGCTCGC,0.079
18,ACGTGATG,0.103
19,CGGTAGAA,0.0732
20,AGAACCAA,0.0749
21,ATGCGGTA,0.0895
22,ATCAGGCC,0.0779
23,TCACGCGA,0.11
24,CACGAATA,0.0763
25,AGCTATCA,0.0753

row,Sequence,binding signal (normalized occupancy)
1,AAGCGTCT,0.0699
2,GACTGACC,0.0743
3,GGTACCAC,0.0743
4,TAAGGCCA,0.0763
5,TCAGTGGA,0.0707
6,AGGTCGGA,0.0712
7,CCTGTAAA,0.0779
8,GGGTGGTA,0.0821
9,CTAGCTAA,0.0691
10,GGATTCTA,0.0823
11,AGTGAAAG,0.0743
12,ATAAGTCG,0.0753
13,ACAACGAG,0.0765
14,ATTGGCGG,0.0732
15,CATTGTGG,0.0863
16,CTCACAAA,0.0699
17,CGATGACC,0.0756
18,ATATCAGA,0.0808
19,CATCTCTC,0.0753
20,CGCATTAA,0.072
21,AGCCCCCA,0.073
22,ACCGCCGA,0.07
23,GTCCCACA,0.0798
24,AACTTCTA,0.0716
25,CGCACCAG,0.0773

row,Sequence,binding signal (normalized occupancy)
1,CCCGGATA,0.0739
2,AGCCTGCG,0.0682
3,CCTAGTGA,0.0749
4,ACCCTGAA,0.0777
5,GGAGAACA,0.0748
6,AATCCCCG,0.0734
7,CGCAGTGC,0.0735
8,AGGTAAAA,0.0679
9,GGTTTTCA,0.0723
10,AGCTAACG,0.0696
11,AAGTCATC,0.0715
12,GCCCACTA,0.0792
13,GCAAGCCC,0.0687
14,AGATACAC,0.0831
15,GCCCACGA,0.0823
16,AACCAGGT,0.0775
17,CCTCCTGA,0.0759
18,ATCTCTGG,0.0713
19,CTCGCAAG,0.0709
20,CCTACGTC,0.0767
21,ACCCTGGA,0.0782
22,CCACGATC,0.0837
23,ACGCGTGG,0.139
24,ACTGGGTA,0.0746
25,GGATTTTA,0.0772

row,Sequence,binding signal (normalized occupancy)
1,AAAACGCT,0.0696
2,AGTACGGA,0.0713
3,AGGGGGTC,0.0831
4,CGCTCCTA,0.0734
5,ACTCGAGA,0.0749
6,GAATCTAA,0.0735
7,CCCGCCAC,0.0753
8,TAACTTGA,0.0743
9,TATACGGA,0.0774
10,ACGTGTTG,0.109
11,CCCAGTAG,0.0725
12,AGTACAAG,0.0744
13,AGGAGGCC,0.0712
14,TAAAAACA,0.0775
15,ATGGTCAG,0.0806
16,GGTATTAC,0.0753
17,ATGCTGTG,0.0916
18,AAGGTTGG,0.0749
19,AGGGGAGC,0.0706
